Test results: US8946446B2, “Pyrrolo sulfonamide compounds for modulation of orphan nuclear receptor RAR-related orphan receptor-γ (ROR-γ, NR1F3) activity and for the treatment of chronic inflammatory and autoimmune diseases” (Phenex Pharmaceuticals AG, priority 2011, dated 2015)
Where two headings read alike, the source gives them in different places. Some of these results come from one statement about several compounds together.

Target: T1, RORγ (UniProt P51449)
T1 construct: hRORg-LBD|aa259-518|NP_005051.2; hRORgt|aa1-497|NP_001001523 (RORg, t isoform, 497aa); mRORg-LBD|aa264-516|NP_035411
T1 sequence (P51449 1-518): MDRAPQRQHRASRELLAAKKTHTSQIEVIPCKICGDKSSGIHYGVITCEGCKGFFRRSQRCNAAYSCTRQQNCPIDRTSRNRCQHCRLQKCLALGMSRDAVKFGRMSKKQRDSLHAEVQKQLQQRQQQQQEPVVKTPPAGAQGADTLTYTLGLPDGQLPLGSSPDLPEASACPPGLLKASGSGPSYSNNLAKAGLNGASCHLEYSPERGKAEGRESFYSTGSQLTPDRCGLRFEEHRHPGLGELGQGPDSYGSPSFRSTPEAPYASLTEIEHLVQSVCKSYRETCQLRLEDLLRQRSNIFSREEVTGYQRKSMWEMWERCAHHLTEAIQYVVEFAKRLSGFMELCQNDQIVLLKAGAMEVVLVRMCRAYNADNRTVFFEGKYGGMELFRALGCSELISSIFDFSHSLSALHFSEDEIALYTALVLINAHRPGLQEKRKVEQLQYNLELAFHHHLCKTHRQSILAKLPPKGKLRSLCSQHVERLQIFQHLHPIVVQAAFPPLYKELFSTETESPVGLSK
Assay: RORγ Gal4 Reporter Gene Assay
Format: cell-based
Details: 293T cells

[1] = firefly (FF) luciferase, read-out: RORγ activity in the Gal4 reporter gene assay, firefly (IC50 FF), Group
[2] = renilla normalised (RENnorm) luciferase, read-out: RORγ activity in the Gal4 reporter gene assay, renilla normalised (IC50 RENnorm), Group

For `COCCOc1cc(-c2cc(S(N)(=O)=O)c(C)n2CC2CCCCC2)cc(C(C)(C)C)n1` [17/4], the IC50 [1] was < 500 nM and the IC50 [2] was 500 to 2000 nM.
In the case of `Cc1c(S(N)(=O)=O)cc(-c2ccc(S(=O)(=O)N(C)CC(C)C)c(C(C)(C)C)c2)n1CC1CCCCC1` [22/15], the IC50 [1] is reported as 500 to 2000 nM.
For `Cc1c(S(N)(=O)=O)cc(-c2ccc(S(=O)(=O)N(C)CC(C)(C)C)c(C(C)(C)C)c2)n1CC1CCCCC1` [22/16], the IC50 [1] was < 500 nM.
`Cc1c(S(N)(=O)=O)cc(-c2ccc(S(=O)(=O)N(C)C3CCCCC3)c(C(C)(C)C)c2)n1CC1CCCCC1` [22/17] was tested, and the IC50 [1] was 500 to 2000 nM.
For `Cc1c(S(N)(=O)=O)cc(-c2ccc(S(=O)(=O)NC(C)(C)C)c(C3(C)CC3)c2)n1CC1CCCCC1` [22/18], the IC50 [1] was < 500 nM and the IC50 [2] was < 500 nM.
`Cc1c(S(N)(=O)=O)cc(-c2cc(C(C)(C)O)cc(C3(C)CC3)c2)n1CC1CCCCC1` [34/1] showed an IC50 [1] of 500 to 2000 nM and an IC50 [2] of 500 to 2000 nM.
With `COC(C)(C)c1cc(-c2cc(S(N)(=O)=O)c(C)n2CC2CCCCC2)cc(C2(C)CC2)c1` [34/2] the IC50 [1] was < 500 nM and the IC50 [2] was < 500 nM.
With `COC(C)(C)c1cc(-c2cc(S(N)(=O)=O)c(C)n2CC2CCCCC2)cc2c1OCCC21CC1` [34/3] the IC50 [1] was < 500 nM and the IC50 [2] was < 500 nM.
`Cc1c(S(N)(=O)=O)cc(-c2cnc(OCC(C)(C)C)c(C(F)(F)F)c2)n1CC1CCCCC1` [34/4] was tested, and the IC50 [1] was 500 to 2000 nM and the IC50 [2] was 500 to 2000 nM.
With `Cc1c(S(N)(=O)=O)cc(-c2cnc(NCC(C)(C)C)c(C(F)(F)F)c2)n1CC1CCCCC1` [34/5] the IC50 [1] was < 500 nM and the IC50 [2] was < 500 nM.
Molecule `CCC(=O)NCC(C)(C)c1cc(-c2cc(S(N)(=O)=O)c(C)n2CC2CCCCC2)cc(C(C)(C)C)c1` [49/1] has an IC50 [1] of 500 to 2000 nM and an IC50 [2] of 500 to 2000 nM.
In the case of `Cc1c(S(N)(=O)=O)cc(-c2cc(C(C)(C)C)cc(C(C)(C)CNC(=O)C3CC3)c2)n1CC1CCCCC1` [49/2], the IC50 [1] is reported as 500 to 2000 nM and the IC50 [2] is reported as 500 to 2000 nM.
`Cc1c(S(N)(=O)=O)cc(-c2cn(S(=O)(=O)c3cccc(Cl)c3)c3ccccc23)n1CC1CCCCC1` [53/1] showed an IC50 [1] of 500 to 2000 nM and an IC50 [2] of 500 to 2000 nM.
With `Cc1c(S(N)(=O)=O)cc(C2=CC(S(=O)(=O)c3ccc(Cl)cc3)c3ccccc32)n1CC1CCCCC1` (stereo not shown) [53/2] the IC50 [1] was < 500 nM and the IC50 [2] was < 500 nM.
`Cc1c(S(N)(=O)=O)cc(-c2cc(C(C)(C)C)cc(C(C)(C)C)c2)n1CC1CCCCC1` [Example 1, 1-(Cyclohexylmethyl)-5-(3,5-di-tert-butylphenyl)-2-methyl-1H-pyrrole-3-sulfonamide] was tested, and the IC50 [1] was < 500 nM and the IC50 [2] was < 500 nM.
Work on `Cc1c(S(=O)(=O)NC2CC2)cc(-c2cc(C(C)(C)C)cc(C(C)(C)C)c2)n1CC1CCCCC1` [Example 3, 1-(Cyclohexylmethyl)-N-cyclopropyl-5-(3,5-di-tert-butylphenyl)-2-methyl-1H-pyrrole-3-sulfonamide] yielded an IC50 [1] of 500 to 2000 nM and an IC50 [2] of 500 to 2000 nM.
For `Cc1c(S(N)(=O)=O)cc(-c2cc(C(C)(C)C)cc(C(C)(C)C)c2)n1S(=O)(=O)N1CCCCC1` [Example 4, 5-(3,5-Di-tert-butylphenyl)-2-methyl-1-(piperidin-1-ylsulfonyl)-1H-pyrrole-3-sulfonamide], the IC50 [2] was > 2000 nM.
In the case of `Cc1c(S(=O)(=O)NCCCCCO)cc(-c2cc(C(C)(C)C)cc(C(C)(C)C)c2)n1CC1CCCCC1` [Example 5], the IC50 [1] is reported as < 500 nM and the IC50 [2] is reported as < 500 nM.
In the case of `Cc1c(S(N)(=O)=O)cc(-c2cc3c(c(C(C)(C)C)c2)OCCC3=NO)n1CC1CCCCC1` [Example 6/1, 5-(8-(tert-Butyl)-4-(hydroxyimino)chroman-6-yl)-1-(cyclohexylmethyl)-2-methyl-1H-pyrrole-3-sulfonamide], the IC50 [1] is reported as 500 to 2000 nM and the IC50 [2] is reported as 500 to 2000 nM.
For `Cc1c(S(N)(=O)=O)cc(-c2cc(C(C)(C)C)cc(C(C)(F)F)c2)n1CC1CCCCC1` [Example 7, 5-(3-(tert-Butyl)-5-(1,1-difluoroethyl)phenyl)-1-(cyclohexylmethyl)-2-methyl-1H-pyrrole-3-sulfonamide], the IC50 [1] was < 500 nM and the IC50 [2] was < 500 nM.
In the case of `Cc1c(S(N)(=O)=O)cc(-c2cc(C(C)(C)C)c(C#N)c(C(C)(C)C)c2)n1CC1CCCCC1` [Example 9, 1-(Cyclohexylmethyl)-5-(3,5-di-tert-butyl-4-cyanophenyl)-2-methyl-1H-pyrrole-3-sulfonamide], the IC50 [1] is reported as < 500 nM and the IC50 [2] is reported as < 500 nM.
For `Cc1c(S(=O)(=O)NCC(C)(C)C(=O)O)cc(-c2ccc(S(=O)(=O)NC(C)(C)C)c(C(C)(C)C)c2)n1CC1CCCCC1` [Example 11, 3-(5-(3-(tert-Butyl)-4-(N-(tert-butyl)sulfamoyl)phenyl)-1-(cyclohexylmethyl)-2-methyl-1H-pyrrole-3-sulfonamido)-2,2-dimethylpropanoic acid], the IC50 [1] was < 500 nM and the IC50 [2] was < 500 nM.
With `Cc1c(S(N)(=O)=O)cc(-c2cc(C(=O)NCC(C)C)cc(C(C)(C)C)c2)n1CC1CCCCC1` [Example 13, 3-(tert-Butyl)-5-(1-(cyclohexylmethyl)-5-methyl-4-sulfamoyl-1H-pyrrol-2-yl)-N-isobutylbenzamide] the IC50 [1] was 500 to 2000 nM and the IC50 [2] was 500 to 2000 nM.
For `Cc1c(S(N)(=O)=O)cc(-c2cc(O)cc(C(C)(C)C)c2)n1CC1CCCCC1` [Example 14, 5-(3-(tert-Butyl)-5-hydroxyphenyl)-1-(cyclohexylmethyl)-2-methyl-1H-pyrrole-3-sulfonamide], the IC50 [1] was 500 to 2000 nM and the IC50 [2] was 500 to 2000 nM.
`Cc1c(S(N)(=O)=O)cc(-c2cc(OCCCC(=O)O)cc(C(C)(C)C)c2)n1CC1CCCCC1` [Example 16, 4-(3-(tert-Butyl)-5-(1-(cyclohexylmethyl)-5-methyl-4-sulfamoyl-1H-pyrrol-2-yl)phenoxy)butanoic acid] was tested, and the IC50 [1] was > 2000 nM and the IC50 [2] was > 2000 nM.
For `Cc1c(S(N)(=O)=O)cc(-c2cc(OCC(C)C)nc(C(C)(C)C)c2)n1CC1CCCCC1` [Example 17, 5-(2-tert-Butyl-6-isobutoxypyridin-4-yl)-1-(cyclohexylmethyl)-2-methyl-1H-pyrrole-3-sulfonamide], the IC50 [1] was < 500 nM and the IC50 [2] was < 500 nM.
Work on `Cc1c(S(N)(=O)=O)cc(-c2cc(C(C)(C)C)nc(C(C)(C)C)c2)n1CC1CCCCC1` [Example 18, 1-(Cyclohexylmethyl)-5-(2,6-di-tert-butylpyridin-4-yl)-2-methyl-1H-pyrrole-3-sulfonamide] yielded an IC50 [1] of 500 to 2000 nM and an IC50 [2] of 500 to 2000 nM.
`Cc1c(S(N)(=O)=O)cc(-c2cc(C(=O)NC(C)(C)C)nc(C(C)(C)C)c2)n1CC1CCCCC1` [Example 20, N,6-Di-tert-butyl-4-(1-(cyclohexylmethyl)-5-methyl-4-sulfamoyl-1H-pyrrol-2-yl)picolinamide] showed an IC50 [1] of 500 to 2000 nM and an IC50 [2] of 500 to 2000 nM.
`CC(C)(C)c1cc(-c2cc(S(N)(=O)=O)cn2CC2CCCCC2)cc(C(C)(C)C)c1` [Example 28, 1-(Cyclohexylmethyl)-5-(3,5-di-tert-butylphenyl)-1H-pyrrole-3-sulfonamide] was tested, and the IC50 [1] was < 500 nM and the IC50 [2] was 500 to 2000 nM.
For `CC(C)(C)c1cc(-c2cc(S(N)(=O)=O)c(Cl)n2CC2CCCCC2)cc(C(C)(C)C)c1` [Example 29, 2-Chloro-1-(cyclohexylmethyl)-5-(3,5-di-tert-butylphenyl)-1H-pyrrole-3-sulfonamide], the IC50 [1] was < 500 nM and the IC50 [2] was < 500 nM.
With `CC(C)(C)c1cc(-c2cc(S(N)(=O)=O)c(Br)n2CC2CCCCC2)cc(C(C)(C)C)c1` [Example 31, 2-Bromo-1-(cyclohexylmethyl)-5-(3,5-di-tert-butylphenyl)-1H-pyrrole-3-sulfonamide] the IC50 [1] was < 500 nM and the IC50 [2] was < 500 nM.
For `CC(C)(C)c1cc(-c2cc(S(N)(=O)=O)c(C#N)n2CC2CCCCC2)cc(C(C)(C)C)c1` [Example 33, 2-Cyano-1-(cyclohexylmethyl)-5-(3,5-di-tert-butylphenyl)-1H-pyrrole-3-sulfonamide], the IC50 [1] was 500 to 2000 nM and the IC50 [2] was < 500 nM.
`Cc1c(S(N)(=O)=O)cc(-c2cc(C(F)(F)F)c(=O)n(CC(C)(C)C)c2)n1CC1CCCCC1` [Example 34, 1-(Cyclohexylmethyl)-2-methyl-5-(1-neopentyl-6-oxo-5-(trifluoromethyl)-1,6-dihydropyridin-3-yl)-1H-pyrrole-3-sulfonamide] was tested, and the IC50 [1] was 500 to 2000 nM and the IC50 [2] was > 2000 nM.
For `Cc1c(S(N)(=O)=O)cc(-c2cc(C(C)(C)O)c3c(c2)C2(CCO3)CC2)n1CC1CCCCC1` [Example 37, 1-(Cyclohexylmethyl)-5-(8-(2-hydroxypropan-2-yl)spiro[chroman-4,1′-cyclopropan]-6-yl)-2-methyl-1H-pyrrole-3-sulfonamide], the IC50 [1] was < 500 nM and the IC50 [2] was < 500 nM.
`Cc1c(S(=O)(=O)NCCC(=O)O)cc(-c2cc(C(C)(C)C)cc(C(C)(C)C)c2)n1CC1CCCCC1` [Example 39, 3-(1-(Cyclohexylmethyl)-5-(3,5-di-tert-butylphenyl)-2-methyl-1H-pyrrole-3-sulfonamido)propanoic acid] was tested, and the IC50 [1] was < 500 nM and the IC50 [2] was < 500 nM.
In the case of `Cc1c(S(=O)(=O)NCCC(N)=O)cc(-c2cc(C(C)(C)C)cc(C(C)(C)C)c2)n1CC1CCCCC1` [Example 40, 3-(1-(cyclohexylmethyl)-5-(3,5-di-tert-butylphenyl)-2-methyl-1H-pyrrole-3-sulfonamido)propanamide], the IC50 [1] is reported as < 500 nM and the IC50 [2] is reported as < 500 nM.
`Cc1c(S(=O)(=O)NCCC(N)=O)c(Cl)c(-c2cc(C(C)(C)C)cc(C(C)(C)C)c2)n1CC1CCCCC1` [Example 41, 3-(4-chloro-1-(cyclohexylmethyl)-5-(3,5-di-tert-butylphenyl)-2-methyl-1H-pyrrole-3-sulfonamido)propanamide] was tested, and the IC50 [1] was < 500 nM and the IC50 [2] was < 500 nM.
